Assay results from patent US20210008161A1, “METHODS AND COMPOSITIONS FOR IMPROVED HOMOLOGY DIRECTED REPAIR” (CRISPR THERAPEUTICS AG, priority 2019, published 2021).

How the values were obtained:
[1] = test system: CD34-expressing LT-HSPCs; assay: HDR incorporation of E7V sickle mutation at HBB locus by NGS assay; settings: Example 6; AAV.304 pre-EP + RNP; 5 μM Nu7441; over RNP+AAV alone; FIG. 22B
[2] = test system: human LT-HSPCs administered to cKit mice; assay: Engraftment (percent chimerism) of edited human LT-HSPCs in mice by flow cytometry; assay type: in vivo, mouse; settings: Example 5; blood at 8 and 16 weeks; RNP+AAV alone or in combination with i53; FIG. 17
Experimental: The cells were administered by intravenous injection to cKit mice at 2 days following electroporation. Recipient mice were treated with sublethal irradiation (100 cGy) at 1 day prior to administration of LT-HSPCs to eliminate hematopoietic cells in the bone marrow and enable engraftment of the donor cells. Animals were evaluated for presence of human hematopoietic cells in peripheral blood at 8 and 16 weeks following LT-HSPC administration. The bone marrow was also evaluated for engraftment and maintenance of the HBB gene-edit at 16 weeks following LT-HSPC administration.
Presence of human hematopoietic cells was measured by flow cytometry in mouse blood or bone marrow samples. Cells were gated on singlet, live cells. […] Engraftment was measured as percent chimerism which was defined as the quantity of human CD45 positive cells divided by the total number of CD45 positive cells (e.g., human and mouse CD45 expressing cells combined). The lineage of human CD45 positive cells was determined using markers for CD19 (e.g., B cells), CD3 (e.g., T cells), CD33 (e.g., myeloid cells), and CD34 (hematopoietic stem/progenitor cells (HSPCs)). […]
A dose of 0.5×10^6 cells was administered by intravenous injection to cKit mice at 2 days following electroporation. […] Animals were evaluated for presence of human hematopoietic cells in peripheral blood at 8 and 16 weeks following LT-HSPC administration. […]

[3] = test system: human LT-HSPCs administered to cKit mice; assay: Lineage analysis of engrafted CD45-expressing human cells in mouse bone marrow; assay type: in vivo; settings: Example 5; bone marrow 16 weeks; edited vs un-edited LT-HSPCs; FIG. 18B
Experimental: Presence of human hematopoietic cells was measured by flow cytometry in mouse blood or bone marrow samples. Cells were gated on singlet, live cells. Mouse and human CD45-expressing hematopoietic cells were distinguished by antibodies targeting mouse or human CD45. Engraftment was measured as percent chimerism which was defined as the quantity of human CD45 positive cells divided by the total number of CD45 positive cells (e.g., human and mouse CD45 expressing cells combined). The lineage of human CD45 positive cells was determined using markers for CD19 (e.g., B cells), CD3 (e.g., T cells), CD33 (e.g., myeloid cells), and CD34 (hematopoietic stem/progenitor cells (HSPCs)).
Shown in FIGS. 18A-18B is lineage analysis of engrafted CD45-expressing human cells in mouse bone marrow samples collected at 16 weeks post administration of LT-HSPCs. The lineage of CD45-expressing human leukocytes was evaluated for unedited LT-HSPCs administered at a dose of 0.01×10^6, 0.05×10^6, 0.1×10^6, or 0.25×10^6 cells (FIG. 18A). The lineage of CD45-expressing human leukocytes was also evaluated for LT-HSPCs edited with AAV+RNP either in the presence or absence of i53 (FIG. 18B).
Shown in FIG. 25 is lineage analysis of engrafted CD45-expressing human cells in mouse bone marrow samples collected at 16 weeks post administration of LT-HSPCs. […]

[4] = test system: human LT-HSPCs administered to cKit mice; assay: Maintenance of HBB gene-edit by HDR in mouse bone marrow by NGS assay; assay type: in vivo; settings: Example 5, FIG. 19
Experimental: Maintenance of gene-editing was evaluated in mouse bone marrow collected at 16 weeks post-administration of LT-HSPCs. Incorporation of a sickle mutation (E7V) in the HBB locus was evaluated in DNA isolated from mouse bone marrow samples using the next generation sequencing assay described in Example 4. Shown in FIG. 19 is a comparison of HDR efficiency for LT-HSPCs edited either with or without i53. LT-HSPCs were electroporated with Cas9/gRNA and treated with AAV. […] LT-HSPCs edited in the presence of i53 had 1.8-fold higher HDR frequency in the bone marrow compared to cells edited with AAV+RNP alone.
Maintenance of gene-editing was evaluated in mouse bone marrow collected at 16 weeks post-administration of LT-HSPCs. Incorporation of a sickle mutation (E7V) in the HBB locus was evaluated in DNA isolated from mouse bone marrow samples using the next generation sequencing assay described in Example 4. […] LT-HSPCs were electroporated with Cas9/gRNA and treated with AAV prior to electroporation or following electroporation. […]
The persistence of edits at the HBB gene locus in mouse bone marrow samples was also evaluated. […] Genomic DNA was isolated from the samples, and evaluated for incorporation of the edit encoded by AAV.323 at the HBB gene locus using the NGS assay as described in Example 4. Frequency of INDELs at the R02 cut site in the HBB gene locus was also assessed by NGS.

| Compound | HDR efficiency [1] | human CD45-expressing cells among total CD45-expressing cells in the blood [2] | lineage distribution of engrafted human CD45-expressing cells [3] | incorporation of the gene edit by HDR in bone marrow ([4]; E7V, 16 weeks post-administration) [%] | fold higher HDR frequency in the bone marrow ([4]; compared to cells edited with AAV+RNP alone) [fold] |
| --- | --- | --- | --- | --- | --- |
| O=c1cc(N2CCOCC2)oc2c(-c3cccc4c3sc3ccccc34)cccc12 [Nu7441] | no improvement | – | – | – | – |
| i53: polypeptide inhibitor of 53BP1 (SEQ ID NO: 70), introduced as an mRNA-encoded protein (ORF SEQ ID NO: 69) | – | 2-3% | no gross changes | 65 | 1.8 |
